This is one part of the list. The energies were worked out here from pooled read counts, against the library average; single values are noisy.
The sequences below were run against T1, Pho4 (S. cerevisiae) (UniProt P07270) (assay: relative binding free energy (BET-seq); higher = weaker binding). Details: reference: library average.
T1 sequence: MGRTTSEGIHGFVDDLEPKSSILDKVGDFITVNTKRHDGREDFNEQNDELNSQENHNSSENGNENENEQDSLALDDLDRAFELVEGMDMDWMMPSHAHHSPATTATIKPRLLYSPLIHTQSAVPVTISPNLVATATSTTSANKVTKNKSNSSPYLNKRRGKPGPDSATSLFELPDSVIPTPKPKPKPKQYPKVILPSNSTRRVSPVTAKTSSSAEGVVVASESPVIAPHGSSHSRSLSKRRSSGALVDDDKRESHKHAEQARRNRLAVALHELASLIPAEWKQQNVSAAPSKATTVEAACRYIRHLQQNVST

| Sequence | relative binding free energy |
| --- | --- |
| GTGGTCACGTGCTTTA | 0.22 kcal/mol |
| CGGAGCACGTGTGGGA | 0.01 kcal/mol |
| CTTTGCACGTGATGGC | 0.13 kcal/mol |
| GCTGTCACGTGAGTCT | 0.51 kcal/mol |
| GGCGCCACGTGGCGGT | 0.01 kcal/mol |
| AAGGGCACGTGTGGAA | -0.06 kcal/mol |
| CGTAGCACGTGGGTTC | -0.19 kcal/mol |
| GGTATCACGTGTATTA | 0.22 kcal/mol |
| GGTAACACGTGGCATG | -0.06 kcal/mol |
| ATGGTCACGTGCGTGG | 0.04 kcal/mol |
| AGGGGCACGTGTTGCC | -0.12 kcal/mol |
| GCTAGCACGTGTAGTG | 0.03 kcal/mol |
| AAGTACACGTGGTTAG | -0.02 kcal/mol |
| TTTTTCACGTGACTTA | 0.19 kcal/mol |
| GGTAGCACGTGGCATG | -0.19 kcal/mol |
| CTGGTCACGTGAGTAG | 0.36 kcal/mol |
| GTCGTCACGTGGCATG | 0.19 kcal/mol |
| ATCGTCACGTGGTTGA | 0.08 kcal/mol |
| GGTTTCACGTGAGGCT | 0.42 kcal/mol |
| CGAAGCACGTGGTGTA | -0.17 kcal/mol |
| TTTACCACGTGTTTGA | 0.06 kcal/mol |

| Sequence | relative binding free energy |
| --- | --- |
| TGTGTCACGTGGGCAA | -0.03 kcal/mol |
| GTGTGCACGTGCGTCA | -0.13 kcal/mol |
| GGGTGCACGTGGTGGT | -0.02 kcal/mol |
| TAAGTCACGTGCGTGT | 0.11 kcal/mol |
| GTGTGCACGTGAATAA | 0.11 kcal/mol |
| GTGGTCACGTGGTGCT | -0.01 kcal/mol |
| GGGCACACGTGGAGTT | 0.07 kcal/mol |
| GGACACACGTGTGGTT | 0.23 kcal/mol |
| AAATGCACGTGGTCTT | -0.18 kcal/mol |
| AGATACACGTGGGGGA | -0.05 kcal/mol |
| TTTGTCACGTGCGCTT | -0.13 kcal/mol |
| AGTAGCACGTGTGAGA | 0.06 kcal/mol |
| ATGCACACGTGTAGGT | 0.07 kcal/mol |
| TTCATCACGTGGTTAT | 0.02 kcal/mol |
| AGGATCACGTGGTTTT | 0.21 kcal/mol |
| AATTACACGTGATTTG | 0.23 kcal/mol |
| CGCTGCACGTGATGGG | -0.03 kcal/mol |
| AGCTTCACGTGTGGAG | 0.38 kcal/mol |
| GGCGGCACGTGGGTCT | -0.15 kcal/mol |
| TTGTTCACGTGCTACT | 0.26 kcal/mol |
| CTGAGCACGTGGAGTA | 0.05 kcal/mol |

| Sequence | relative binding free energy |
| --- | --- |
| GATGCCACGTGTTATG | -0.02 kcal/mol |
| GGTTTCACGTGGTCGC | 0.31 kcal/mol |
| ATGCGCACGTGATGTG | -0.1 kcal/mol |
| AAGACCACGTGGGGGT | -0.26 kcal/mol |
| TCGGTCACGTGGTTGC | 0.1 kcal/mol |
| CTTTGCACGTGAGTTT | 0.12 kcal/mol |
| TGGTGCACGTGTTAGT | 0 kcal/mol |
| AGAGGCACGTGGGGCG | -0.23 kcal/mol |
| AGGGGCACGTGAGGTA | 0.11 kcal/mol |
| GATGTCACGTGACAGG | 0.29 kcal/mol |
| TACGTCACGTGAAGGG | 0.32 kcal/mol |
| AAGTACACGTGTTCAG | 0.19 kcal/mol |
| GTTGTCACGTGTGTCG | 0.17 kcal/mol |
| TGCGCCACGTGGGGCG | -0.21 kcal/mol |
| TGGTTCACGTGTGGGC | 0.27 kcal/mol |
| ATAATCACGTGTGTTT | 0.1 kcal/mol |
| CTAAGCACGTGGGGTT | -0.28 kcal/mol |
| GATTACACGTGTGGAG | 0.07 kcal/mol |
| TTTAGCACGTGATAAT | 0.18 kcal/mol |
| GGTCGCACGTGTGATT | -0.11 kcal/mol |
| GCATTCACGTGTGCGG | 0.23 kcal/mol |
